# Hit rate of the full screen: of about 310,000 compounds, about 2,200 (0.71%) showed an effect of 50% or more. The effect is printed as a negative number. The list shows a part of the results.
# Target: human ether-à-go-go-related gene (hERG) potassium channel (human, UniProt Q12809)
# Test: primary screen, population patch clamp on CHO cells stably expressing hERG
# Sequence of human ether-à-go-go-related gene (hERG) potassium channel (Q12809 whole entry, looked up): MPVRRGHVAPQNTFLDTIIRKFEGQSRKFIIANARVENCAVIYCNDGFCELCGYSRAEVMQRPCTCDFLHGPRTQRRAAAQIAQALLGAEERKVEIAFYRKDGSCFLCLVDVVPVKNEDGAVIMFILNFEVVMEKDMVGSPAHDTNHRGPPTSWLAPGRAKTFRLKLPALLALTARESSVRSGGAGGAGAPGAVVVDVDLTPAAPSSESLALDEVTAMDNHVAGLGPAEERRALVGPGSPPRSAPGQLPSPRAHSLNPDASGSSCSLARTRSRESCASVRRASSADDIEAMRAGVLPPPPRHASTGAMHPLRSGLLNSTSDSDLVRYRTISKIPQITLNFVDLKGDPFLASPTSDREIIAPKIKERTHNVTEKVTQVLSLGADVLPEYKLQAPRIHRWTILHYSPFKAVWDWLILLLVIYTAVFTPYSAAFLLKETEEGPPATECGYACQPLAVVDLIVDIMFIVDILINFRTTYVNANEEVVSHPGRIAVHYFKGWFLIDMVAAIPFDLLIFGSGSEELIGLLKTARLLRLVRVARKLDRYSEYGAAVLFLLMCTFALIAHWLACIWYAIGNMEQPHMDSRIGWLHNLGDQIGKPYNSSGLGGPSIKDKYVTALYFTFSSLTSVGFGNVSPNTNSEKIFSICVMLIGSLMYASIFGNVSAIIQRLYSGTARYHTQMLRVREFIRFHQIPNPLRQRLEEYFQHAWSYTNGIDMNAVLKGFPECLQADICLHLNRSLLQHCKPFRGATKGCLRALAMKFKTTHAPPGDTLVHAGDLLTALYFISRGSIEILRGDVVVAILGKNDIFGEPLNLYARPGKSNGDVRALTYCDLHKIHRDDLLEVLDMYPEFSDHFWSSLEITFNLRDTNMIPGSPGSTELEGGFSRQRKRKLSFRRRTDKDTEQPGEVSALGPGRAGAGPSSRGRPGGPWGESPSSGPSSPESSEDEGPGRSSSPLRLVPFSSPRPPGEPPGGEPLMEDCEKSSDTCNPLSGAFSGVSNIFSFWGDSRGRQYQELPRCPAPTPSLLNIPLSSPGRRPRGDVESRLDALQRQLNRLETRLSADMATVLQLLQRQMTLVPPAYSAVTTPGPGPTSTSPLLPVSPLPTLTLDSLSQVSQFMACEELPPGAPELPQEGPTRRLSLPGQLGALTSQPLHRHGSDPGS
row,Structure (SMILES),"hERG current change (%, negative = inhibition) at 1uM [%]"
1,c1cnc2ccc(C(c3nnnn3C3CCCCC3)N3CCN(C4CCCCC4)CC3)cc2c1 (stereo not shown),-87
2,COc1cc(OC)c(OC)cc1/C=N/NC(=O)C[n+]1ccccc1.[Cl-],-2.3
3,CSc1nnc(COc2ccc(C)cc2)n1N,17.2
4,CC(C)N(Cc1ccccc1)C(=O)c1cccs1,16.1
5,CCN(CC(=O)Nc1c(F)cccc1F)C(=O)c1cnccn1,6.4
6,Cc1ccc(Cl)cc1Nc1nc(-c2sc(NC(=O)c3ccccc3)nc2C)cs1,5.57
7,COc1cccc(NC(=O)C(=O)N/N=C(\C)CC(=O)Nc2ccc(NC(C)=O)cc2)c1,19.6
8,Cl.c1ccc(CC2=NCCN2)cc1,14.8
9,COc1ccc(N(C)S(=O)(=O)c2cccc(C(=O)OCC(=O)Nc3sc4c(c3C#N)CCCCC4)c2)cc1,7.01
10,COc1ccccc1C(=O)Nc1ccc2c(c1)nc(CN1CCN(C(C)=O)CC1)n2C,-19.7
11,Cc1c(CCC(=O)O)c(=O)oc2c(C)c3occ(-c4ccc(Br)cc4)c3cc12,14.8
12,Cc1nc2ccccc2c(=O)n1/N=C/c1ccccc1O,7.95
13,CCO[C@@H]1OC(C(=O)NCc2nc3ccccc3[nH]2)=C[C@H](C)[C@H]1CCCO,1.7
14,CCOC(=O)c1[nH]c(C)c(C(=O)Nc2ccccc2F)c1C,-0.649
15,NC(=O)N/N=C/c1ccc(-c2ccc([N+](=O)[O-])cc2)o1,5.21
16,O=C(CSc1ccccn1)Nc1cccc(S(=O)(=O)N2CCCC2)c1,-1.52
17,Cc1ccc(C(=O)OC(C)C(=O)NC2CCCCC2C)s1 (stereo not shown),2.91
18,O=C(O)c1cccc(COc2ccccc2Cl)c1,4.17
19,COc1ccc(C(=O)NCC(=O)N/N=C/C(C)=C/c2ccccc2)cc1OC,-4.74
20,Cc1nc2ccc([N+](=O)[O-])cc2c(=O)n1Cc1ccc([N+](=O)[O-])cc1,-76.5
21,COc1ccc(N2CCC(CNS(=O)(=O)c3cccc(C(F)(F)F)c3)C2)cc1 (stereo not shown),4.38
22,CCOC(=O)CN1C(=O)N[C@@H](c2ccccc2)C(C(C)=O)=C1C,11.7

row,Structure (SMILES),"hERG current change (%, negative = inhibition) at 1uM [%]"
1,CC(=O)Nc1cc(NC(C)=O)cc(C(=O)OCC(=O)N2CC(C)OC(C)C2)c1 (stereo not shown),0.114
2,CC(=O)c1c2c3c(c(Br)ccc3n(C)c1=O)C(=O)c1ccccc1-2,15.6
3,O=C(c1ccc(Cl)c(Cl)c1)N1CCC(=O)N(C(COCc2cccc(Cl)c2)Cc2ccccc2)CC1 (stereo not shown),8.49
4,Cc1ccccc1N1C(=O)c2ccccc2N2C(=O)c3ccccc3C12 (stereo not shown),-1.93
5,O=C1Nc2ccccc2C12OC1CCCCC1O2 (stereo not shown),-4.13
6,CCc1ccc(C(=O)COC(=O)CNC(=O)CNC(=O)Cc2ccccc2)cc1,14
7,Cc1ccc(CNC(=O)c2cn(C)c(=O)c3c2c2ccccc2n3C)o1,12.2
8,CC(=O)Nc1ccc2c(c1)nc(CCN1CCC(C)CC1)n2C,12.4
9,CCCCCCCn1c(=N)n(CC(O)c2ccco2)c2ccccc21.Cl (stereo not shown),-76.8
10,CC(C)NC(=O)c1ccccc1NC(=O)C1COc2ccccc2O1 (stereo not shown),27
11,CCN(CC)c1ccc(/C=C2\NC(=O)NC2=O)cc1,5.67
12,CCOC(=O)c1cccc(NC(=O)Cn2c(CC(=O)NC)nc3ccccc32)c1,1.54
13,O=C(Nc1cccc(Cn2cccn2)c1)c1cc2c(s1)CCCC2,-2.29
14,c1ccc2c3c([nH]c2c1)C1(CCNCC1)NCC3,0.772
15,CCCCC[n+]1ccn(C2=C([O-])c3ccccc3C(=O)/C2=N\S(=O)(=O)c2ccc(Cl)cc2)c1,6.9
16,CC(C)CN1C(=O)c2ccc(C(=O)Nc3nccs3)cc2C1=O,3.39
17,CC(=O)N1CCc2c(sc(NC(=O)C3CCCN3S(=O)(=O)c3cccs3)c2C(N)=O)C1 (stereo not shown),15.9
18,CCOC(=O)NC(=O)CSc1nc(-c2ccc(C)c(C)c2)cn1-c1ccccc1,7.91
19,CCn1c(-c2ccccc2)csc1=Nc1ccc(S(=O)(=O)O)cc1,14.5
20,O=C(Cc1csc(-c2ccccc2)n1)Nc1ccc(C(F)(F)F)cc1,5.33
21,Cn1c(SCC(=O)N2CCN(c3ccccc3)CC2)nnc1-c1cc2ccccc2o1,-1.8
